For three molecules, binding results are on record in PMC4274898.

These are yes or no findings as the source states them, for the method shown. For part of these data: In cells and extracts the contact can be indirect. Some binding calls cover weakened binding; strength is not graded here.

Experiment [1] concerns the target T1, cEYFP-ARF19 (Arabidopsis thaliana) (UniProt Q8RYC8).
T1 sequence: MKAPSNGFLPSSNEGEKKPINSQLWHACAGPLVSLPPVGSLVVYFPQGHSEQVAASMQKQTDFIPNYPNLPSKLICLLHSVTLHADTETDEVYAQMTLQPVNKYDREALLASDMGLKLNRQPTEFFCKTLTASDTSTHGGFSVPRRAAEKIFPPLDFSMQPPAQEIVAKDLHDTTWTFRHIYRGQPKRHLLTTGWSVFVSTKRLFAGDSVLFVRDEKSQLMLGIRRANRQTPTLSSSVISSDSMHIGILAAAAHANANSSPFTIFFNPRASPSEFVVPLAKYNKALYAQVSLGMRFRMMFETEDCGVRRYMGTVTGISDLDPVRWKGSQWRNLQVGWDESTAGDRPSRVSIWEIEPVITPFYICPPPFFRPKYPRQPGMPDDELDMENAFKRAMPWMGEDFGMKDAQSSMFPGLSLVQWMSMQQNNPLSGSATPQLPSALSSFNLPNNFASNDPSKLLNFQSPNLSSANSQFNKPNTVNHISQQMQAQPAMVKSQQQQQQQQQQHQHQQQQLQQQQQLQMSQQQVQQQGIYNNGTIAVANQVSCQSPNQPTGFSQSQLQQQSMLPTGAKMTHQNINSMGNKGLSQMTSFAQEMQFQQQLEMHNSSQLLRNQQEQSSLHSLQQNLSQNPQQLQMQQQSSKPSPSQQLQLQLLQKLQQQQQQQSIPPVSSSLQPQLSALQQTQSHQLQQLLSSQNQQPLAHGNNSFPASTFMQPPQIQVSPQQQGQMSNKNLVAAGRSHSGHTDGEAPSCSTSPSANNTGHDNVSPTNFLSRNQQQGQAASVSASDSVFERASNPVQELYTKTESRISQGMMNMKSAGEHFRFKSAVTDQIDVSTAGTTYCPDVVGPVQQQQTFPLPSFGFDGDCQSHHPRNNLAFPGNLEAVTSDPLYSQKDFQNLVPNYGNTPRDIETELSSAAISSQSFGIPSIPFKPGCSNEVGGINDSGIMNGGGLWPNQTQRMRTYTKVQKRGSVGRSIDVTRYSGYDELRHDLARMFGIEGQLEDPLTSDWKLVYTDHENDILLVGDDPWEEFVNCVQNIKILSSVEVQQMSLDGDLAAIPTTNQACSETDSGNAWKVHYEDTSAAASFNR
Briefly: split reporter; BiFC: cEYFP-ARF and nEYFP-Aux/IAA fusions co-expressed in onion epidermal cells by particle bombardment; 25°C in dark for 16-24 h; YFP fluorescence imaged.

For experiment [2], the target named is T2, cEYFP-ARF6 (Arabidopsis thaliana) (UniProt Q9ZTX8).
T2 sequence: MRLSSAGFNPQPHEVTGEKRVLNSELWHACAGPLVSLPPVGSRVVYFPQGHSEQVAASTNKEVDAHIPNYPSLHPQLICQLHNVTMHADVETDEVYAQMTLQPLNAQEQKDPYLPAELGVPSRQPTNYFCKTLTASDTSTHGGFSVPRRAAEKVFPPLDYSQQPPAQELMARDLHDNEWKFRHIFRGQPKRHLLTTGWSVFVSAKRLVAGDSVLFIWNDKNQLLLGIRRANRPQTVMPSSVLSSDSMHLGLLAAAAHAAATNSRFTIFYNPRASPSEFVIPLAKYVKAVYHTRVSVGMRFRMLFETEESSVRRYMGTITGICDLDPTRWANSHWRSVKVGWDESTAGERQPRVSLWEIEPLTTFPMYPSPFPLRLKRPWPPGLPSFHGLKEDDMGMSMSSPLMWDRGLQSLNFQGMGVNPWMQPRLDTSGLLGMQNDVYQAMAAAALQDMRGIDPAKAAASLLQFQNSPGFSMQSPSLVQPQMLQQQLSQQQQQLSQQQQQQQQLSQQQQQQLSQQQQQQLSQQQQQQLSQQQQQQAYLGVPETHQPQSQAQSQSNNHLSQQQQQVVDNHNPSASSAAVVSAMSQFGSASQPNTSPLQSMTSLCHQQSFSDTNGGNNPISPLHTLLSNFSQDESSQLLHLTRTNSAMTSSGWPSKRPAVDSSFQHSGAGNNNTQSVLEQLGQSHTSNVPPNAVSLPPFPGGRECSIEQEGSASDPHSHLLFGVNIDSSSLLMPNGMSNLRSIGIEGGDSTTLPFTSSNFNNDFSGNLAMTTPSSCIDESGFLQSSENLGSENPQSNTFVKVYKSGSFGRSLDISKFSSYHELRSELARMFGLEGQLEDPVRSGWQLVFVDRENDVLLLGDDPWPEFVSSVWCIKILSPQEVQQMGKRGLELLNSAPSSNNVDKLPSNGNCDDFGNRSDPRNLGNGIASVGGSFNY
The experiment is described as above.

Experiment [3] has as its target T3, ARF11 (Arabidopsis thaliana), Q9ZPY6.
T3 chain: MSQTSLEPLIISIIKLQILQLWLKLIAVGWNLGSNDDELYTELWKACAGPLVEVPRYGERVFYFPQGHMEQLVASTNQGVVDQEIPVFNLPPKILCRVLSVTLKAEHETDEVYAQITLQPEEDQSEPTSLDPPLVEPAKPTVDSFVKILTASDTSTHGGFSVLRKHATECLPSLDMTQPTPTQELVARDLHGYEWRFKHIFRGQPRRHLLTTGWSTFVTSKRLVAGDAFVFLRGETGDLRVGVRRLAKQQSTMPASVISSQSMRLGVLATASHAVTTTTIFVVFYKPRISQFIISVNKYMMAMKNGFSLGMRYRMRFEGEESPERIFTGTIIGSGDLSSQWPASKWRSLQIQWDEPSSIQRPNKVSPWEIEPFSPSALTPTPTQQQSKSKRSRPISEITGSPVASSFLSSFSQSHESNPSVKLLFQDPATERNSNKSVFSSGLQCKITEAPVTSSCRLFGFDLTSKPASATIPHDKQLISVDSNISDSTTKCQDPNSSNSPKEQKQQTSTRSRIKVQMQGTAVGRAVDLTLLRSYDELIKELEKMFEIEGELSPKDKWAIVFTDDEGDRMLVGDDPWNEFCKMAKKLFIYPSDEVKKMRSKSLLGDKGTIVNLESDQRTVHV
Briefly: two-hybrid; S. cerevisiae AH109 co-transformed with pGBKT7-ARF (bait) and pGADT7-Aux/IAA (prey); growth on SD/-Ade-His-Leu-Trp against SD/-Leu/-Trp; at least 10 independent colonies; serial dilutions for strength. The note with it: remark: other sources report otherwise.

B1: nEYFP-Aux/IAA34 (protein, UniProt Q9C5X0 1-185)
chain: MYCSDPPHPLHLVASDKQQKDHKLILSWKKPTMDSDPLGVFPNSPKYHPYYSQTTEFGGVIDLGLSLRTIQHEIYHSSGQRYCSNEGYRRKWGYVKVTMDGLVVGRKVCVLDHGSYSTLAHQLEDMFGMQSVSGLRLFQMESEFCLVYRDEEGLWRNAGDVPWNEFIESVERLRITRRNDAVLPF
Regarding B1, in experiment [1], the binding entry is on record as “binds”.

B2: nEYFP-Aux/IAA32 (protein, UniProt Q8RYC6 1-191)
chain: MDPNTPADFFKGSSKFHTYYSQTKKGGGVIDLGLSLRTIQHETYLPPARMIGLDGYGELIDWSQPSYNSITQLKSEDTGHQRLAQGYYNNEGESRGKYAYVKVNLDGLVVGRKVCLVDQGAYATLALQLNDMFGMQTVSGLRLFQTESEFSLVYRDREGIWRNVGDVPWKEFVESVDRMRIARRNDALLPF
B2: in experiment [2], the binding result is recorded as “binds”.

B3: Aux/IAA8, Q38826 1-321 (protein)
chain: MSYRLLSVDKDELVTSPCLKERNYLGLSDCSSVDSSTIPNVVGKSNLNFKATELRLGLPESQSPERETDFGLLSPRTPDEKLLFPLLPSKDNGSATTGHKNVVSGNKRGFADTWDEFSGVKGSVRPGGGINMMLSPKVKDVSKSIQEERSHAKGGLNNAPAAKAQVVGWPPIRSYRKNTMASSTSKNTDEVDGKPGLGVLFVKVSMDGAPYLRKVDLRTYTSYQQLSSALEKMFSCFTLGQCGLHGAQGRERMSEIKLKDLLHGSEFVLTYEDKDGDWMLVGDVPWEIFTETCQKLKIMKGSDSIGLAPGAVEKSKNKERV
B3: the binding entry in experiment [3] is listed as “no binding”.
